The list shows a part of the results. Further columns of the screen follow, without active or inactive calls.
Molecular target: GTPase KRas (Homo sapiens) (UniProt P01116)
Assay: Cysteine mutants labelled by reactive fragments (mass read-out) (AID 2202238)
Parameters: protein at 5 µM with 500 µM competing thiol for 1.5 h
Conditions: KRAS G12D cysteine mutants, disulfide tethering, MALDI-TOF labeling, stronger effect = higher value, fragment at 500 µM
[1] = measured here: G60C mutant labeling
[2] = measured here: G75C mutant labeling
[3] = measured here: H94C mutant labeling
[4] = measured here: I36C mutant labeling
[5] = measured here: L120C mutant labeling
[6] = measured here: M67C mutant labeling
[7] = measured here: M72C mutant labeling
[8] = measured here: N26C mutant labeling
[9] = measured here: N86C mutant labeling
[10] = measured here: P121C mutant labeling
[11] = measured here: S122C mutant labeling
[12] = measured here: S136C mutant labeling

UniProt P01116, sequence (P01116 whole entry, looked up, the tested form may be a part): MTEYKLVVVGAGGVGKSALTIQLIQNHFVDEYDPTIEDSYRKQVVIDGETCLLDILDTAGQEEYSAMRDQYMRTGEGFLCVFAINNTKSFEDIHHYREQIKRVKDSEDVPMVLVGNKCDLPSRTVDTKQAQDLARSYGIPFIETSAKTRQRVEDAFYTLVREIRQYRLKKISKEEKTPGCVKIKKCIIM

SMILES	percent labeling [1] [%]	percent labeling [2] [%]	percent labeling [3] [%]	percent labeling [4] [%]	percent labeling [5] [%]	percent labeling [6] [%]	percent labeling [7] [%]	percent labeling [8] [%]	percent labeling [9] [%]	percent labeling [10] [%]	percent labeling [11] [%]	percent labeling [12] [%]
O=C(NCCS)[C@@H]1CC[C@H](CN2CCOCC2)O1	15.3	5.2	25.5	15.8	25.8	27.5	7.3	23.5	15.8	24.5	27.6	32.7
O=C(CCS)NC1CCN(c2ncccn2)CC1		13.6	32.2	42.5	32	47.2	21.7		18.3	35.6	37	63.3
O=C(NCCS)C1CN=C(c2ccccc2)NC1 (stereo not given)	33.3	16.4	35.1	42.1	33.1	42.1	18.1	39.8	24.8	34.9	23.1	47.1
O=C(CC(N1CCOCC1)C(F)(F)F)NCCS (stereo not given)	37.4	9.5	33.1	27.3	36.1	30.2	21.4	27.9	27.7	33	30.7	40.7
O=C(CCS)NCCNC(=O)Cn1ccc(C(F)(F)F)n1		7.2	30.4	35.2	29	29.9	16.8		30.4	28.8	32.2	40.1
N#Cc1ccc(-c2ccc3c(c2)N(C(=O)CCS)CCO3)cc1		16.7	32.7	27.8	17.3	19.2	39.5		22.8	19.8	7.9	46
O=C(CCS)NCc1cc(COc2ccccc2F)on1		9.6	30.1	27.2	21.1	47.6	35.4		14.5	22.8	20.8	39.2
O=C(NCCS)c1c(Cl)cccc1Oc1ccccc1Cl	48.2	14.3	17.7	7.7	21.3	22.5	32.1	26	5.1	11	7.7	31.9
Cc1cc(C(=O)NCCS)ccc1-n1cnnn1	25.8	16	22.5	26.6	27.9	24.1	38.8	37.7	16.7	25	16.7	40.4
O=C(CCS)NC[C@@H]1Cc2ccccc2CO1		21.8	32.3	37.6	33.6	40.5	31.7		23.1	41.1	38.6	56.5
O=C(CC(O)(c1nc2ccccc2s1)C(F)(F)F)NCCS (stereo not given)	50.2	12.4	23.1	16.8	21.6	17.7	23	22.1	11.7	16.2	10.5	18.4
COc1ccc(CCNC(=O)CCS)cc1Br		16.5	34.2	33.2	20.5	27.2	48.6		17.9	25.4	23	43.4
CCC(C)n1ncc2c(C(=O)NCCS)cc(C)nc21 (stereo not given)	48.1	16.2	22.1	18.7	25	24.7	49.5	32.7	17.2	18.6	22	44
O=C(CCS)N(Cc1nc2ccccc2c(=O)[nH]1)CC1CCCO1 (stereo not given)		12.2	34.4	33.2	33.9	40.4	34.3		19.8	62.3	29.2	59.1
Cc1sc2ncnc(N3CCC(C(=O)NCCS)CC3)c2c1C	31	13.7	15.2	10.4	12.1	8	20.7	22.6	6.1	9.1	4.5	22.3
O=C(NCCS)c1cc(-c2ccc3c(c2)CCO3)no1	10.9	5.4	10.1	8	14.1	7.2	49.7	19.2	10	10.1	8.4	13.8
O=C(CCS)Nc1cc(F)c(F)cc1N1CCOCC1		17.7	30.7	35.3	23.5	29.4	43.2		25.3	26.5	23.9	39
O=C(NCCS)c1cnnn1Cc1ccccc1	47.3	32.9	31.2	22.3	32	43	65.1	36	24.2	26.9	23.9	48.3
O=C(CCS)NCCNc1ncccc1C(F)(F)F		17.1	40.6	41.6	42.8	46	37		36	36.6	36.2	57
O=C(NCCS)c1cc(-c2ccc(Cl)cc2)ns1	34.6	14.9	14.6	10.9	12.8	9.4	32.7	33.4	12	10.4	8.7	13.4
Cn1cc(-c2ccccc2)nc1C(=O)NCCS	15.9	10.5	11.5	7.2	10.3	10.6	22.2	30.4	4.9	8.3	6.2	15.6
O=C(CCS)NC1CC(c2cccc(Cl)c2)C1 (stereo not given)		8.6	16.4	15.7	13.3	13.6	21.2		7.5	17	13.4	29.4
O=C(Cn1c(=O)[nH]c2ccccc2c1=O)NCCS	33.9	14.1	23.8	26.3	52.2	33	55.4	39.8	27.4	24.9	26.1	35.6

SMILES	percent labeling [1] [%]	percent labeling [2] [%]	percent labeling [3] [%]	percent labeling [4] [%]	percent labeling [5] [%]	percent labeling [6] [%]	percent labeling [7] [%]	percent labeling [8] [%]	percent labeling [9] [%]	percent labeling [10] [%]	percent labeling [11] [%]	percent labeling [12] [%]
O=C(CCOc1cccc(Cl)c1Cl)NCCS	45	40.6	31.9	12.9	36.9	37.3	55.2	35.3	21	26.5	15.1	26.3
O=C(Cn1cnc2c(oc3ccccc32)c1=O)NCCS	24.2	7.2	13	15.6	47	40.1	20.5	24.9	13.7	22	10.2	17.1
CCc1c(C(=O)NCCS)nnn1Cc1ccccc1	26.5	15.2	19.4	13.6	24.3	30.5	47.4	31.6	16.7	17.5	16.6	27.7
Cn1c(=O)[nH]c2ncc(-c3cccc(C(=O)NCCS)c3)cc21	14.7	4.5	8	6.5	5.7	7.7	36.6	40.8	6	5.9	3.4	10.5
Cc1nn(CC(F)F)c(C)c1NC(=O)CCS		8.8	36.1	35.4	30.1	36.5	17.3		35.6	34.5	36.4	53.6
N#Cc1ccc(N2CCCC2C(=O)NCCS)cc1 (stereo not given)	26.9	11	23	20.4	22.8	28.8	12.7	21.2	14.7	19.4	16.6	22.4
Cc1nc(-c2ccc(C(=O)NCCS)cc2)n[nH]1	31.9	20.5	26.6	19.4	30.5	24.5	47.9	46.9	35.3	21.5	23.6	36.7
O=C(CCS)N1CCN(C(=O)c2cc(Cl)c[nH]2)CC1		17.2	32.6	46.6	40.1	38.7	27.5		21.4	40.1	33.3	57.9
Cc1cc(-c2cc(C(=O)NCCS)c3c(C)noc3n2)c(C)o1	20.6	12.4	10.9	3.9	3.8	2.7	2.8	11.2	0	8.4	2.8	7.8
Cc1cc(C(=O)NCCS)c(C)n1Cc1ccccc1	17	3.3	11.7	9.7	15.9	9.9	9	10.7	6.1	10.5	10.3	18
Cc1nnnn1-c1ccc(C(=O)NCCS)c(F)c1	31.7	22.5	33.3	29.6	36.8	37.7	43.7	43.7	31.3	38.3	33.2	44.2
Cc1noc2nc(C(C)C)cc(C(=O)NCCS)c12	46.2	13.6	25.8	18.8	22.6	21.7	26.3	33.9	17.3	19.8	17	58.7
Cc1c(CNC(=O)CCS)oc2ccc(Cl)cc12		13.7	33.8	22.9	27.3	25.2	36.3		16.6	23.8	15.2	38
O=C(NCCS)C1(C2CCCCC2)CCCCC1	32.5	17.2	13.7	6.4	18.5	9.5	28.7	22.7	14.4	14.2	7.9	19.4
O=C(NCCS)c1cc(=O)[nH]c2cc(F)ccc12	14.3	8	8.2	6.4	10	18.5	32.7	31.3	10.2	8.7	8.1	11.3
NC(=O)N1CCc2ccc(NC(=O)CCS)cc21		8.9	12.1	18.6	23.4	16.6	31.7		15.6	18.2	19.5	36.6
O=C(NCCS)c1nc2c(Br)cccn2n1	44.7	72.1	42.8	31	65.2	38.6	73.8	45.8	30.2	38.3	31.3	52.3
Cc1cnc(C2(NC(=O)CCS)CCOCC2)[nH]1		7.4	26.4	39.9	20.5	34.4	9.7		22.7	28.1	25.8	45.3
O=C(NCCS)c1cccc(-c2ccccc2)n1	17.6	23.1	13.4	7.4	12.4	9.6	36.1	28.1	7	11.8	7	22.3
COC1CCn2cc(C(=O)NCCS)nc2C1 (stereo not given)	17.9	13.5	25.5	19.1	45.7	28.2	25	35.2	22	26.1	25.7	44.2
O=C(NCCS)c1ccn(-c2cccc(F)c2)n1	18.4	19.7	19.5	11.6	26.1	10.2	54	29.4	9.7	17.2	10.3	26.6
CC(C)N(CC(=O)N1CCCCCC1)C(=O)CCS		9.7	36.7	29.3	35.9	31.8	21.1		20.6	32.4	37.7	56.4
CN(C)C(=O)Cn1cccc(C(=O)NCCS)c1=O	26.1	5.7	32.3	23.2	40.5	35.4	29.3	32.2	24.6	29	33	49.8

— PubChem BioAssay AID2202238 (Ras Initiative Chemistry Research Team, Frederick National …, 2025)
